Source: the supplement of paper PMC4967469
IC50 is the fitted dose that halves viability relative to control wells, and lower means more sensitive; a limit (>, <) means that the fit lies beyond the doses tested. AUC, from the same fit, is the share of area under the viability curve across the 256-fold dose range; the more sensitive the line, the further below 1. For some assays here: An inferred top dose was calculated from the reported fits.

Key:
Assay in all cases: Viability of human cancer cell lines after 72 h of drug (GDSC screen)
Dabrafenib = compound: CC(C)(C)c1nc(-c2cccc(NS(=O)(=O)c3c(F)cccc3F)c2F)c(-c2ccnc(N)n2)s1 [Dabrafenib]; settings: top dose 10 µM
Procedure: (§1)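 Human cancer cell lines in 384-well plates, medium with 10% serum, drug for 72 h over a 256-fold dose range (nine 2-fold or five 4-fold steps up to the top dose). Adherent lines were fixed and stained with the nucleic acid dye Syto60, suspension lines read with resazurin; signal relative to control wells, capped at 0 and 100%. One two-parameter sigmoid per drug and line, fitted in a mixed model over all curves with the slope shared within a line.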

SN-38 = compound: CCc1c2c(nc3ccc(O)cc13)-c1cc3c(c(=O)n1C2)COC(=O)[C@]3(O)CC [SN-38]; settings: top dose 0.05 µM; top dose inferred
Procedure: as §1

Methotrexate = compound: CN(Cc1cnc2nc(N)nc(N)c2n1)c1ccc(C(=O)N[C@@H](CCC(=O)O)C(=O)O)cc1 [Methotrexate]; settings: top dose 0.2 µM
Procedure: as §1

Axitinib = compound: CNC(=O)c1ccccc1Sc1ccc2c(/C=C/c3ccccn3)n[nH]c2c1 [Axitinib]; settings: top dose 2 µM
Procedure: as §1

Vorinostat = compound: O=C(CCCCCCC(=O)Nc1ccccc1)NO [Vorinostat]; settings: top dose 10 µM
Procedure: as §1

Row | Cell Line | AUC (Dabrafenib) | IC50 (Dabrafenib) | AUC (SN-38) | IC50 (SN-38) | AUC (Methotrexate) | IC50 (Methotrexate) | AUC (Axitinib) | IC50 (Axitinib) | AUC (Vorinostat) | IC50 (Vorinostat)
1 | NCI-H2452 (mesothelioma, adherent) | 0.83 | 8.02 µM | 0.793 | 0.0278 µM | 0.928 | > 0.2 µM | 0.955 | > 2 µM | 0.885 | > 10 µM
2 | MOG-G-CCM (glioma, adherent) | 0.975 | > 10 µM | 0.804 | 0.0302 µM | 0.928 | > 0.2 µM | 0.919 | > 2 µM | 0.76 | 4.07 µM
3 | DMS-79 (small cell lung carcinoma, suspension) | 0.985 | > 10 µM | 0.824 | 0.0364 µM | 0.894 | > 0.2 µM | 0.986 | > 2 µM | 0.761 | 4.09 µM
4 | SCC-9 (head and neck, adherent) | 0.973 | > 10 µM | 0.809 | 0.0355 µM | 0.972 | > 0.2 µM | 0.975 | > 2 µM | 0.881 | > 10 µM
5 | JHH-1 (liver, adherent) | 0.977 | > 10 µM | 0.875 | > 0.05 µM | 0.982 | > 0.2 µM | 0.963 | > 2 µM | 0.528 | 0.751 µM
6 | EC-GI-10 (oesophagus, adherent) | 0.939 | > 10 µM | 0.673 | 0.00941 µM | 0.986 | > 0.2 µM | 0.966 | > 2 µM | 0.758 | 3.44 µM
7 | P32-ISH (Burkitt lymphoma, suspension) | 0.728 | 2.27 µM | 0.321 | 0.00114 µM | 0.922 | 0.174 µM | 0.898 | 1.4 µM | 0.592 | 1.05 µM
8 | 5637 (bladder, adherent) | 0.981 | > 10 µM | 0.49 | 0.00294 µM | 0.891 | 0.194 µM | 0.904 | > 2 µM | 0.74 | 2.8 µM
9 | SW1573 (lung adenocarcinoma, adherent) | 0.907 | > 10 µM | 0.574 | 0.00532 µM | 0.972 | > 0.2 µM | 0.925 | > 2 µM | 0.745 | 4.13 µM
10 | MKN7 (stomach, adherent) | 0.926 | > 10 µM | 0.925 | > 0.05 µM | 0.979 | > 0.2 µM | 0.983 | > 2 µM | 0.83 | 9.51 µM
11 | CML-T1 (chronic myeloid leukaemia, suspension) | 0.692 | 1.94 µM | 0.126 | 0.000281 µM | 0.696 | 0.0397 µM | 0.561 | 0.178 µM | 0.499 | 0.62 µM
12 | MLMA (hairy cell leukaemia, semi-adherent) | 0.773 | 3.94 µM | 0.628 | 0.00708 µM | 0.842 | 0.143 µM | 0.977 | > 2 µM | 0.728 | 2.8 µM
13 | OVKATE (ovary, adherent) | 0.966 | > 10 µM | 0.973 | > 0.05 µM | 0.979 | > 0.2 µM | 0.937 | > 2 µM | 0.971 | > 10 µM
14 | Hs766T (pancreas, adherent) | 0.87 | > 10 µM | 0.955 | > 0.05 µM | 0.97 | > 0.2 µM | 0.941 | > 2 µM | 0.723 | 3.34 µM
15 | VMRC-MELG (melanoma, adherent) | 0.956 | > 10 µM | 0.988 | > 0.05 µM | 0.989 | > 0.2 µM | 0.962 | > 2 µM | 0.78 | 4.33 µM
16 | JHU-022 (head and neck, adherent) | 0.905 | > 10 µM | 0.614 | 0.00703 µM | 0.948 | > 0.2 µM | 0.862 | > 2 µM | 0.595 | 1.22 µM
17 | CaR-1 (large intestine, adherent) | 0.975 | > 10 µM | 0.271 | 0.000492 µM | 0.968 | > 0.2 µM | 0.951 | > 2 µM | 0.716 | 3.54 µM
18 | YAPC (pancreas, adherent) | 0.824 | 7.98 µM | 0.734 | 0.0174 µM | 0.923 | > 0.2 µM | 0.949 | > 2 µM | 0.915 | > 10 µM
19 | OCI-M1 (acute myeloid leukaemia, suspension) | 0.995 | > 10 µM | 0.649 | 0.00725 µM | 0.895 | 0.142 µM | 0.979 | > 2 µM | 0.538 | 0.772 µM
20 | RMG-I (ovary, adherent) | 0.85 | 9.66 µM | 0.618 | 0.00698 µM | 0.98 | > 0.2 µM | 0.969 | > 2 µM | 0.751 | 3.77 µM
21 | SW780 (bladder, adherent) | 0.968 | > 10 µM | 0.644 | 0.00811 µM | 0.788 | 0.0968 µM | 0.87 | > 2 µM | 0.826 | 6.78 µM

Row | Cell Line | AUC (Dabrafenib) | IC50 (Dabrafenib) | AUC (SN-38) | IC50 (SN-38) | AUC (Methotrexate) | IC50 (Methotrexate) | AUC (Axitinib) | IC50 (Axitinib) | AUC (Vorinostat) | IC50 (Vorinostat)
22 | NCI-H1437 (lung adenocarcinoma, adherent) | 0.985 | > 10 µM | 0.911 | > 0.05 µM | 0.889 | > 0.2 µM | 0.95 | > 2 µM | 0.686 | 2.12 µM
23 | SCC-25 (head and neck, adherent) | 0.948 | > 10 µM | 0.904 | > 0.05 µM | 0.971 | > 0.2 µM | 0.979 | > 2 µM | 0.801 | 5.62 µM
24 | NCI-H1694 (small cell lung carcinoma, suspension) | 0.988 | > 10 µM | 0.734 | 0.0144 µM | 0.989 | > 0.2 µM | 0.944 | > 2 µM | 0.646 | 1.58 µM
25 | 639-V (bladder, adherent) | 0.987 | > 10 µM | 0.349 | 0.00128 µM | 0.991 | > 0.2 µM | 0.867 | 1.37 µM | 0.698 | 2.04 µM
26 | HCC1143 (breast, adherent) | 0.975 | > 10 µM | 0.844 | > 0.05 µM | 0.932 | > 0.2 µM | 0.94 | > 2 µM | 0.738 | 4.02 µM
27 | SJSA-1 (bone, adherent) | 0.943 | > 10 µM | 0.836 | 0.0394 µM | 0.984 | > 0.2 µM | 0.975 | > 2 µM | 0.824 | 7 µM
28 | NCI-H28 (mesothelioma, adherent) | 0.84 | > 10 µM | 0.807 | 0.0362 µM | 0.881 | > 0.2 µM | 0.914 | > 2 µM | 0.812 | 7.61 µM
29 | NCI-H1092 (small cell lung carcinoma, suspension) | 0.987 | > 10 µM | 0.91 | > 0.05 µM | 0.986 | > 0.2 µM | 0.99 | > 2 µM | 0.485 | 0.568 µM
30 | TGW (neuroblastoma, adherent) | 0.988 | > 10 µM | 0.933 | > 0.05 µM | 0.654 | 0.0312 µM | 0.911 | > 2 µM | 0.556 | 0.871 µM
31 | SJRH30 (rhabdomyosarcoma, adherent) | 0.976 | > 10 µM | 0.709 | 0.0124 µM | 0.895 | > 0.2 µM | 0.943 | > 2 µM | 0.408 | 0.348 µM
32 | RCC-JW (kidney, adherent) | 0.926 | > 10 µM | 0.444 | 0.00219 µM | 0.986 | > 0.2 µM | 0.945 | > 2 µM | 0.731 | 2.91 µM
33 | CHL-1 (melanoma, adherent) | 0.565 | 0.931 µM | 0.424 | 0.00196 µM | 0.856 | 0.147 µM | 0.962 | > 2 µM | 0.528 | 0.74 µM
34 | ECC10 (stomach, suspension) | 0.974 | > 10 µM | 0.59 | 0.00559 µM | 0.795 | 0.0978 µM | 0.905 | > 2 µM | 0.505 | 0.644 µM
35 | CHSA0108 (chondrosarcoma, adherent) | 0.835 | 8.09 µM | 0.718 | 0.0145 µM | 0.953 | > 0.2 µM | 0.931 | > 2 µM | 0.627 | 1.48 µM
36 | BL-41 (Burkitt lymphoma, suspension) | 0.975 | > 10 µM | 0.407 | 0.00185 µM | 0.447 | 0.0093 µM | 0.888 | 1.34 µM | 0.516 | 0.683 µM
37 | MFM-223 (breast, adherent) | 0.957 | > 10 µM | 0.938 | > 0.05 µM | 0.989 | > 0.2 µM | 0.733 | 0.57 µM | 0.788 | 4.35 µM
38 | G-401 (kidney, adherent) | 0.889 | > 10 µM | 0.71 | 0.0131 µM | 0.881 | > 0.2 µM | 0.917 | > 2 µM | 0.787 | 4.81 µM
39 | KCL-22 (chronic myeloid leukaemia, suspension) | 0.892 | 8.43 µM | 0.814 | 0.0218 µM | 0.684 | 0.0371 µM | 0.74 | 0.527 µM | 0.674 | 1.74 µM
40 | NCI-H2405 (lung adenocarcinoma, adherent) | 0.902 | > 10 µM | 0.681 | 0.0106 µM | 0.986 | > 0.2 µM | 0.943 | > 2 µM | 0.885 | > 10 µM
41 | PCI-15A (head and neck, adherent) | 0.985 | > 10 µM | 0.631 | 0.0072 µM | 0.988 | > 0.2 µM | 0.931 | > 2 µM | 0.988 | > 10 µM
